Experimental data from PubChem BioAssay AID588342 (National Center for Advancing Translational Sciences (NCATS), 2011).
Out of some 360,000 compounds screened, about 25,000 (6.9%) were called active. Inconclusive results, whose numbers are uncertain, are shown with a selection of clear calls. Calls come from the whole dose curve; as a rule, active = well fitted inhibition curve with a large enough effect; inconclusive = small, poorly fitted or top-dose-only effect; inactive = flat fitted curve, though single readings scatter. Potencies of inconclusive entries are doubtful fits and often do not repeat.

biological target: Luciferin 4-monooxygenase (Photinus pyralis) (UniProt P08659); assay: qHTS profiling assay for firefly luciferase inhibitor/activator using purifed enzyme and Km concentrations of substrates (counterscreen for miR-21 project); conditions: purified FLuc, luminescence inhibition; series mostly up to 57.5 µM; activity change, negative = inhibition: at the top concentration; note: nearly all actives have a fitted effect of over 55% in size;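 for activity change, negative = inhibition: plate controls were vehicle for no effect and reference inhibitor for full effect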
Method in brief: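 Purified P. pyralis luciferase, 10 nM final, with Km-level 10 uM D-luciferin and 10 uM ATP in 50 mM Tris acetate pH 7.5, 10 mM Mg acetate, 0.01% Tween-20, 0.05% BSA; 6-point qHTS titration about 60 µM downward; luminescence read.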
Potency is the fitted concentration of half-maximal effect; tags give direction and shape of the fitted curve.

Chain of UniProt P08659 (P08659 whole entry, looked up): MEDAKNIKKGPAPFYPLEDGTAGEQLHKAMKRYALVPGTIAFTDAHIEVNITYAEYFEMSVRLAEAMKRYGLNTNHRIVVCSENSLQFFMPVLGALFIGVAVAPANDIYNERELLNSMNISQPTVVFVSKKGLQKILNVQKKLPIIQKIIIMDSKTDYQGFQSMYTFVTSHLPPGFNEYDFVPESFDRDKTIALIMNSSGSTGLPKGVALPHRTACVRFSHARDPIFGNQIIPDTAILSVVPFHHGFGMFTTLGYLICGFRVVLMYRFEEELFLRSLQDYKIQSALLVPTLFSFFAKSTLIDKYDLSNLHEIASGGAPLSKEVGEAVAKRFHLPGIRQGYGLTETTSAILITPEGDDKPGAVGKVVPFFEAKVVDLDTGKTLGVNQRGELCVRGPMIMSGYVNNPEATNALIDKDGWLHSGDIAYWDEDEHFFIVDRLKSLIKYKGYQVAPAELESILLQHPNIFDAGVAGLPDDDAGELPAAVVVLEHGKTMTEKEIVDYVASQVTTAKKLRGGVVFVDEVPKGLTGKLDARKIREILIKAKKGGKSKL

Compound | Potency | activity change, negative = inhibition
Cc1ccc2cc(CN(CCN(C)C)C(=O)Nc3ccc(Cl)cc3)c(=O)[nH]c2c1 | active: 10.7 µM | 
O=C1CC(/C=C/c2ccco2)=Nc2ccccc2N1 | inconclusive: 37.9 µM [inhibitor, partial curve, poor fit] | 
COc1cc([N+](=O)[O-])ccc1NC(=O)CN1CCCC1 |  | inactive: -1.25%
O=C(N/N=C/C=C/c1ccc2c(c1)OCO2)C(O)c1ccccc1 (centres undefined) | inconclusive: 42.6 µM [inhibitor, partial curve, poor fit] | 
COC(=O)C1=C(C)N(c2ccc(Br)cc2)C(=O)/C1=C\c1ccco1 |  | inactive: -2.45%
CCn1c(SCC(=O)Nc2ccc3c(c2)OCCO3)nc2c(c1=O)SC(C)C2 (centres undefined) | inconclusive: 21.3 µM [inhibitor, partial curve, poor fit] | 
COC(=O)c1ccc(N2CCN(CC(=O)c3ccc(-c4ccccc4)cc3)CC2)c([N+](=O)[O-])c1 | inconclusive: 23.9 µM [inhibitor, partial curve, poor fit] | 
Cc1ccoc1C(=O)NCCNc1ccc(Cl)cc1[N+](=O)[O-] | inconclusive: 5.36 µM [inhibitor, partial curve, poor fit] | 
COc1ccccc1NC(=O)c1ccc(C)s1 | active: 13.5 µM | 
NNC(=O)c1oc2nc(-c3ccccc3)cc(-c3ccccc3)c2c1N |  | inactive: 0.486%
COc1ccc(/C(C)=N/Nc2nc(C)c(C(C)=O)s2)cc1 | inconclusive: 37.9 µM [inhibitor, single point] | 
Cc1ccc(N2C(=O)[C@@H]3[C@H](C2=O)[C@H]2C=CC=NN2[C@@H]3C(=O)Nc2ccc(Cl)cc2)cc1 | inconclusive: 13.5 µM [inhibitor, partial curve, poor fit] | 
O=C(/C=C/c1ccccc1)NCCSc1ccc(Cl)cc1 | inconclusive: 23.9 µM [inhibitor, partial curve, poor fit] | 
CC(=O)c1ccc2c(c1)Cc1cc(C(C)=O)ccc1-2 | inconclusive: 9.53 µM [inhibitor, partial curve] | 
Cc1ccc(-n2cc(CN3CCNC(=O)CC3)c(-c3ccc(F)cc3)n2)cc1 | inconclusive: 26.9 µM [inhibitor, partial curve] | 
CCCCc1ccc(NC(=O)N2CCNC(=O)C2CC(=O)Nc2ccsc2C(=O)OC)cc1 (centres undefined) | inconclusive: 21.3 µM [inhibitor, partial curve, poor fit] | 
CCOc1ccc(C(=O)NCCn2cc(SCC(=O)Nc3ccccc3)c3ccccc32)cc1 | inconclusive: 9.53 µM [inhibitor, partial curve, poor fit] | 
O=C(O)c1cc(-c2ccc(/C=C3/SC(=S)N(Cc4ccccc4)C3=O)o2)ccc1Cl | inconclusive: 23.9 µM [inhibitor, partial curve] | 
Cc1ccccc1CSc1nnc(-c2ccccn2)n1N | inconclusive: 30.1 µM [inhibitor, partial curve, poor fit] | 
O=C(CSCc1ccccc1)Nc1ccc(Cl)cn1 | inconclusive: 23.9 µM [inhibitor, single point] | 
CSC[C@H](NC(=O)Cc1c(C)c2cc3c(C)c(C)oc3cc2oc1=O)C(=O)N[C@@H](Cc1ccccc1)C(=O)O | inconclusive: 26.9 µM [inhibitor, single point] | 
O=C(CSc1ncc(-c2ccccc2)[nH]1)Nc1cccc(C(F)(F)F)c1 | inconclusive: 19 µM [inhibitor, single point] | 
CC(C)c1ccc2c(c1)-c1ccccc1S(=O)(=O)N2CC(=O)N1CCCCC1 | inconclusive: 30.1 µM [inhibitor, partial curve, poor fit] | 

Compound | Potency | activity change, negative = inhibition
COc1cc(Cn2c(=O)sc3ccccc32)ccc1OCCC(C)C |  | inactive: -7.19%
S=C(Nc1ccc(Cl)cc1)Nc1cccc2cnccc12 | inconclusive: 26.9 µM [inhibitor, single point] | 
COc1cccc(-c2cc(C(=O)Nc3ccc4c(c3)OCCO4)c3ccccc3n2)c1 | inconclusive: 4.78 µM [inhibitor, partial curve, poor fit] | 
Cc1ccnc(NC(=O)CCCNC(=O)c2ccc(Cl)cc2)c1 | active: 16.9 µM | 
COc1ccc(OC)c(/C=N/NC(=O)CSc2nnc(C)n2-c2ccccc2)c1 |  | inactive: -6.59%
CN(Cc1ccccc1)C(=O)COc1ccc(Br)cc1Cl | inconclusive: 37.9 µM [inhibitor, partial curve, poor fit] | 
Cn1c(-c2sc3cc(C(F)(F)F)cnc3c2-c2cccs2)n[nH]c1=S | inconclusive: 23.9 µM [inhibitor, single point] | 
Cn1c(=O)cc(SCC(=O)N2CCN(c3ccccc3F)CC2)c2cc(Cl)ccc21 |  | inactive: 4.72%
CC1CCCC(C)N1/N=C/c1ccc(O)c(O)c1 (centres undefined) |  | inactive: -16.8%
Cc1ccc(OCC(=O)NC(=S)Nc2ccc(Br)cn2)cc1 |  | inactive: -0.481%
Nc1ccc2c(c1)Nc1ccccc1CC2 | inconclusive: 23.9 µM [inhibitor, partial curve, poor fit] | 
COc1ccc(CNC(=O)CSc2n[nH]c(-c3ccc(OC)cc3)n2)cc1 | inconclusive: 26.9 µM [inhibitor, partial curve, poor fit] | 
c1csc(-c2noc(CN3CCc4sccc4C3)n2)c1 | inconclusive: 37.9 µM [inhibitor, partial curve, poor fit] | 
Cc1ccc(NC(=O)c2cc3c([nH]c2=O)CC(C)(C)CC3=O)c(C)c1 |  | inactive: 3.45%
CC(C)(C)NC(=O)c1cc2c(ccc3ccccc32)oc1=O | inconclusive: 12 µM [inhibitor, partial curve] | 
CC(C)(C)C(=O)/C=c1\[nH]c(=O)/c(=C\c2ccc(F)cc2)s1 | active: 23.9 µM | 
CNC(=S)SCCOc1ccccc1C | inconclusive: 30.1 µM [inhibitor, partial curve, poor fit] | 
Cc1ccc(C(C)C)c(OCc2ccc(C(=O)N/N=C/c3ccc(C(=O)O)cc3)cc2)c1 | inconclusive: 9.53 µM [inhibitor, partial curve] | 
COC(=O)/C=C/c1ccc2c(c1)OCO2 | inconclusive: 37.9 µM [inhibitor, single point] | 
CCc1ccc(-c2cc3c(=O)n(CC(=O)NCCN4CCCCC4C)nc(C)n3n2)cc1 (centres undefined) | inconclusive: 26.9 µM [inhibitor, partial curve, poor fit] | 
CC(C)(C)c1ccc(C(=O)O/N=C(\N)c2ccccn2)cc1 | active: 0.239 µM | 
CCN(CC)c1ccc(NC(=O)c2ccco2)cc1 | active: 3.01 µM | 
COc1ccc(C(=O)O/N=C(\N)Cc2cccs2)cc1OC |  | inactive: 4.59%

Compound | Potency | activity change, negative = inhibition
O=C(Nc1cnc(N2CCC(N3CCCCC3)CC2)c(C(=O)O)c1)c1ccc(Br)cc1 |  | inactive: -10.5%
O=C1c2ccc(Cl)cc2S(=O)(=O)c2cccc(C(=O)N3CCC(Cc4ccccc4)CC3)c21 |  | inactive: 2.58%
C=CCOc1ccc(C(=O)Nc2ccc3c(c2)n(C)c(=O)n3C)cc1 | inconclusive: 23.9 µM [inhibitor, single point] | 
O=C(NNC(=O)C12CC3CC(CC(C3)C1)C2)c1ccccc1O | active: 15.1 µM | 
Cc1cc(C(=O)COC(=O)CN(C)S(=O)(=O)c2ccc(Cl)cc2)c(C)n1Cc1cccs1 | inconclusive: 21.3 µM [inhibitor, single point] | 
CCc1ccc(NC(=O)CSc2nc3ccsc3c(=O)n2CCCCCC(=O)O)cc1 | inconclusive: 16.9 µM [inhibitor, partial curve, poor fit] | 
CCCC(C)NC(=O)c1ccc(-c2ccccc2)cc1 (centres undefined) | inconclusive: 6.75 µM [inhibitor, partial curve, poor fit] | 
CC(C)c1ccc2oc(-c3ccc(NC(=O)c4cc5ccccc5o4)cc3)nc2c1 |  | inactive: -2.3%
COc1cccc(-c2cc(C(=O)Nc3ccn(Cc4ccc(C)cc4)n3)no2)c1 | inconclusive: 8.49 µM [inhibitor, partial curve, poor fit] | 
O=C(COC(=O)C1CCN(S(=O)(=O)c2ccc3c(c2)OCCO3)CC1)Nc1cccc2ccccc12 | inconclusive: 26.9 µM [inhibitor, single point] | 
O=C(NCCSC1CCCCC1)c1ccccc1 | inconclusive: 26.9 µM [inhibitor, single point] | 
O=C(NNC1=NS(=O)(=O)c2ccccc21)c1ccccc1 | active: 4.78 µM | 
COc1ccc(C(C)(C)NC(=O)C2CCC(=O)N(CCCN3CCCC3=O)C2)cc1 (centres undefined) |  | inactive: 5.04%
CC(=O)c1ccc(N2CCN(c3ncnc4onc(C)c34)CC2)cc1 |  | inactive: 2.27%
Cc1ccc(OCC(=O)N(C)CC(=O)Nc2ccc(Cl)c(C(F)(F)F)c2)c([N+](=O)[O-])n1 |  | inactive: 2.13%
COc1cc(-c2nc(-c3cccc(Cl)c3)c(-c3ccccc3)[nH]2)cc(OC)c1OC |  | inactive: 5.65%
CC(C)NC(=O)c1onc(CSc2ccc(Cl)cc2)c1C(=O)O | inconclusive: 21.3 µM [inhibitor, single point] | 
COc1ccc(OCC(=O)Nc2ccccc2C(=O)OCc2cc(=O)n3nc(C)sc3n2)cc1 |  | inactive: -14.8%
CC1CCN(c2ccc(C(F)(F)F)cc2N)CC1 | inconclusive: 26.9 µM [inhibitor, single point] | 
Cn1c(Cl)c(/C=N/OC(=O)c2cccc(Cl)c2)c2ccccc21 | inconclusive: 13.5 µM [inhibitor, partial curve, poor fit] | 
NS(=O)(=O)c1ccc(NC(=O)COC(=O)CCc2ccccc2)cc1 |  | inactive: -0.166%
Cc1ccc(C(=O)Nc2ccc3cn[nH]c3c2)cc1S(=O)(=O)N1CCCCC1 | active: 21.3 µM | 
CC(C)c1ccc(NC2(C#N)C(=O)Nc3ccccc32)cc1 (centres undefined) | inconclusive: 15.1 µM [inhibitor, partial curve, poor fit] | 
